Laboratory results from PubChem BioAssay AID1460 (National Center for Advancing Translational Sciences (NCATS), 2008).
Hit rate of the full screen: of about 270,000 compounds, about 5,800 (2.1%) were called active. This list was built around the results that the source calls inconclusive (neither active nor inactive); the mix of calls is not that of the screen. The call rests on the fitted dose curve; in most records, active means well fitted inhibition curve with a large enough effect; inconclusive means small, poorly fitted or top-dose-only effect; inactive means flat fitted curve, though single readings scatter. Potencies beside an inconclusive call are fits to weak or partial responses and may not hold up.
Further: nearly all actives have a fitted effect of over 55% in size.
On the % scale 0 is the no-effect control and ±100 the full control effect; potency means the concentration at half of the fitted maximal effect; tags describe the fitted curve by direction and shape.

The molecules below were run against Microtubule-associated protein tau (Homo sapiens) (UniProt P10636) (assay: qHTS for Inhibitors of Tau Fibril Formation, Thioflavin T Binding). Conditions: recombinant tau K18 P301L (four-repeat tau fragment), heparin-induced fibrillization, ThT fluorescence; series mostly up to 57.4 µM.
UniProt P10636, sequence (P10636 whole entry, looked up, the tested form may be a part): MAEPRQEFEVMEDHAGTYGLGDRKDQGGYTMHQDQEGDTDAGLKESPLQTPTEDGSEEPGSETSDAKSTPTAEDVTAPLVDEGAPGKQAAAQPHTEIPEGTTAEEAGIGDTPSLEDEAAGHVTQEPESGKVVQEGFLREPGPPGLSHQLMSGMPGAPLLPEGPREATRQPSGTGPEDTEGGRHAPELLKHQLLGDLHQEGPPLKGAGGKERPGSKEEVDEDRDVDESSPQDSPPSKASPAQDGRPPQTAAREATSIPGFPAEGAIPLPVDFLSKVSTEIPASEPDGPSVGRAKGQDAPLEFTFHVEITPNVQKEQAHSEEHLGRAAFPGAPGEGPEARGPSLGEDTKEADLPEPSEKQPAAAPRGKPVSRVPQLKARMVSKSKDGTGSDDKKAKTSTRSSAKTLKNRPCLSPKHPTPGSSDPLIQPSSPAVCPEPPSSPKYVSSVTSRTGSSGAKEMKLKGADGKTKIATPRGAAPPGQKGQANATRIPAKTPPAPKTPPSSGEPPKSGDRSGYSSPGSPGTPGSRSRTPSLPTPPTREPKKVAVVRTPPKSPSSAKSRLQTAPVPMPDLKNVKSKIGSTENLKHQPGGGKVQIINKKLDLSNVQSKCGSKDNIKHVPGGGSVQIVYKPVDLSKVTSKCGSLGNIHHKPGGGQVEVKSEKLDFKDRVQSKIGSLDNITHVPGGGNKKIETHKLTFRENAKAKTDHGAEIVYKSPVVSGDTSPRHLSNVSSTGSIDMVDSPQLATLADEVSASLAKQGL
Outline: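 Heparin-induced (20 uM) aggregation of recombinant human K18 P301L tau, 15 uM unlabeled with 0.24 uM labeled, pH 7 acetate buffer, 6 hr at 37 C with compound. Fibrils quantified by 30 uM ThT fluorescence after 1 hr ambient incubation.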
In the case of `Cc1ccc(-n2ncc3c(NCc4ccccc4)ncnc32)cc1Cl`, the Potency is reported as “inactive”.
For `CCOc1ccccc1C(=O)NCc1ccco1`, the Potency was inconclusive: 39.8 µM [inhibitor, single point].
For `CCOc1cc(CNc2ccc3c(c2)CCC3)ccc1O`, the Potency was “inactive”.
For `CN1c2ccsc2/C(=N/Nc2ccccc2)CS1(=O)=O`, the Potency was inconclusive: 12.6 µM [inhibitor, partial curve].
For `CCCCOc1ccc(C(=O)N(Cc2ccc(N(C)C)cc2)Cc2ccco2)cc1`, the Potency was inconclusive: 5.01 µM [inhibitor, partial curve].
With `CC(=O)Nc1nc(C=C(Cl)Cl)cs1` the Potency was inconclusive: 28.2 µM [inhibitor, single point].
In the case of `Cc1ccc(NC2=C(Cl)C(=O)OC2OC(=O)c2ccccc2)c(C)c1` (stereo not given), the Potency is reported as inconclusive: 22.4 µM [inhibitor, partial curve].
With `Nc1cc(Br)c(N)c(Br)c1` the Potency was inconclusive: 31.6 µM [inhibitor, single point].
For `COc1cc(C=O)ccc1OC(=O)c1ccncc1`, the Potency was inconclusive: 11.2 µM [inhibitor, partial curve].
`NC(=O)c1ccc(N=Nc2c(O)c3ccccc3[nH]c2=O)cc1` was tested, and the Potency was active: 0.501 µM.
`COc1ccc(CNc2nc(-c3cccnc3)nn2C(=O)c2ccco2)cc1` was tested, and the Potency was inconclusive: 10 µM [inhibitor, partial curve].
With `CCC(=O)C1=C(c2ccc(F)cc2)N(C(=O)CC)n2cnnc2S1` the Potency was active: 10 µM.
With `CC(=O)c1ccc(C2C=CC(Oc3ccc(F)cc3C)C(CO)O2)cc1` (stereo not given) the activity, negative = inhibition was inactive: -10.4% [at 11.5 µM].
For `CC(C)(C)c1nnc2sc(SCC(=O)N3CCCc4ccccc43)nn2c1=O`, the Potency was inconclusive: 39.8 µM [inhibitor, single point].
In the case of `Cc1cc(C(=O)COC(=O)c2ccc[nH]c2=O)c(C)n1-c1ccc(Br)cc1`, the Potency is reported as “inactive”.
With `CC(=O)c1cc2c(O)c(O)ccc2o1` the Potency was inconclusive: 15.8 µM [inhibitor, partial curve].
With `CSc1nc(N(CCO)CCO)c2sc3nc(-c4ccco4)c4c(c3c2n1)CCC4` the Potency was active: 25.1 µM.
In the case of `COc1cccc2cc(-c3nnc(SCC(=O)NCc4ccccc4)n3C)oc12`, the Potency is reported as inconclusive: 39.8 µM [inhibitor, single point].
For `COc1ccc(-c2csc(-c3cc4ccccc4oc3=N)n2)cc1`, the Potency was inconclusive: 4.47 µM [inhibitor, partial curve, poor fit].
With `CC(C)CCNC(=O)CN(C(=O)Cn1nnc(-c2ccccc2F)n1)c1cccc2c1CCCC2` the Potency was inconclusive: 7.94 µM [inhibitor, full curve].
With `CCn1c(-c2nonc2NC(=O)c2ccccc2)nc2ccccc21` the Potency was inconclusive: 10 µM [inhibitor, partial curve].
`Cc1ccccc1OCCNc1cc(N2CCN(CCO)CC2)ccc1[N+](=O)[O-]` was tested, and the Potency was active: 12.6 µM.
For `CC[n+]1ccc(C)c2cc(P(=O)(c3ccccc3)c3ccccc3)ccc21`, the Potency was inconclusive: 28.2 µM [inhibitor, partial curve].
With `CCOc1ccc(-c2nn(-c3ccccc3)cc2C2NC(=O)NC(C)=C2C(=O)OC(C)C)cc1` (stereo not given) the Potency was inconclusive: 39.8 µM [inhibitor, single point].
For `COc1ccc(/C=C2\SC(=S)N(c3cccnc3)C2=O)cc1`, the Potency was inconclusive: 0.141 µM [inhibitor, full curve, poor fit].
`CCc1nnc(NC(=O)CSc2nc(C)cc(C)c2C#N)s1` was tested, and the Potency was inconclusive: 8.91 µM [inhibitor, partial curve].
For `COc1ccc(C(=O)N/N=C/c2ccccn2)cc1OC`, the Potency was inconclusive: 22.4 µM [inhibitor, partial curve].
With `C/C(=N\NC(=O)c1cc(-c2ccccn2)nc2ccccc12)c1cccc([N+](=O)[O-])c1` the Potency was “inactive”.
With `Cc1cc(=O)oc2cc(OCC3CC(c4ccccc4Cl)=NO3)ccc12` (stereo not given) the Potency was inconclusive: 3.55 µM [inhibitor, full curve].
In the case of `CCn1c2ccccc2c(=O)c2ccccc21`, the Potency is reported as “inactive”.
In the case of `CC(C)c1ccc(OCC(=O)NCCS(=O)(=O)N2CCN(c3ccc(F)cc3)CC2)cc1`, the Potency is reported as “inactive”.
For `Cn1nc(-c2ccccc2)c(-c2nc(-c3ccccc3Cl)no2)c1Cl`, the Potency was inconclusive: 14.1 µM [inhibitor, partial curve].
For `COc1ccc(C(=O)Cc2nnc(C)s2)c(OC)c1`, the Potency was inconclusive: 12.6 µM [inhibitor, partial curve].
With `CC(C)(C)OC(=O)N1CCC(c2c(C(=O)NCCN3CCc4ccccc4C3)cnn2-c2ccc(F)cc2)CC1` the Potency was inconclusive: 22.4 µM [inhibitor, single point].
For `COC(=O)Cn1c(=NC(=O)CN2C(=O)CCC2=O)sc2cc(S(N)(=O)=O)ccc21`, the Potency was “inactive”.
For `O=C(c1ccc2ccccc2c1)N1CCN(c2ccc([N+](=O)[O-])c(N3CCOCC3)c2)CC1`, the Potency was inconclusive: 14.1 µM [inhibitor, partial curve].
In the case of `COc1cc(/C=C2/C(=O)NN(c3cccc(C)c3)C2=O)ccc1OC(=O)c1ccco1`, the Potency is reported as inconclusive: 11.2 µM [inhibitor, partial curve].
In the case of `Clc1cccc(Oc2ncccn2)c1`, the Potency is reported as “inactive”.
For `Cc1cccc(OCC(=O)Nc2cccc(-c3nnc(-c4ccccc4)o3)c2)c1C`, the Potency was inconclusive: 3.55 µM [inhibitor, partial curve].
With `CCc1ccc(C2NC(=S)NC3=C2C(=O)CC(C)(C)C3)cc1` (stereo not given) the Potency was “inactive”.
`CCOc1cc(C2c3c(n[nH]c3C)C(=O)N2c2ccc(Br)cc2)ccc1O` (stereo not given) was tested, and the Potency was inconclusive: 20 µM [inhibitor, partial curve].
With `N=C1/C(=C/c2coc3ccccc3c2=O)C(=O)N=C2SC(c3ccco3)=NN12` the Potency was inconclusive: 25.1 µM [inhibitor, partial curve].
In the case of `COc1ccc(C(=O)NCC(c2ccc3c(c2)OCO3)N2CCN(c3ccccc3F)CC2)cc1` (stereo not given), the Potency is reported as inconclusive: 25.1 µM [inhibitor, partial curve, poor fit].
For `COc1cccc(C2CC(=O)Nc3c2c(=O)[nH]c2nc4ccccc4n32)c1` (stereo not given), the Potency was inconclusive: 10 µM [inhibitor, partial curve].
With `COc1cccc(Nc2nc(N)c([N+](=O)[O-])c(NCc3ccccc3)n2)c1` the Potency was inconclusive: 14.1 µM [inhibitor, partial curve].
For `Cc1ccc(N/C=C/C(=O)c2cccs2)cc1`, the Potency was inconclusive: 15.8 µM [inhibitor, partial curve].
In the case of `C/C(=C\C(=S)Nc1ccccc1)Nc1ccc2ccccc2c1`, the Potency is reported as active: 12.6 µM.
`O=C(COc1ccc2ccccc2c1)N/N=C/c1ccccn1` was tested, and the Potency was inconclusive: 7.94 µM [inhibitor, partial curve].
With `COc1cc(C(=O)Oc2ccc3c(c2)OCC3=O)cc(OC)c1OC` the Potency was inconclusive: 17.8 µM [inhibitor, partial curve].
For `Cc1ccc(C)c2[nH]c(=O)c(C(c3nnnn3Cc3ccco3)N3CCc4ccccc4C3)cc12` (stereo not given), the Potency was active: 31.6 µM.
In the case of `CC/C(C)=N/Nc1ccc(S(=O)(=O)N2CCCC2)cc1[N+](=O)[O-]`, the Potency is reported as inconclusive: 25.1 µM [inhibitor, single point].
`CCOC(=O)c1c(NC(=O)c2nc(S(C)(=O)=O)ncc2Cl)sc(C(C)=O)c1C` was tested, and the Potency was active: 22.4 µM.
With `CC1(C)Cc2nc(NC3CCCCC3)c(C#N)cc2CO1` the Potency was “inactive”.
In the case of `O=C(Nc1nc(-c2ccccn2)cs1)c1ccc([N+](=O)[O-])o1`, the Potency is reported as active: 12.6 µM.
In the case of `CC(C)(C)OC(=O)N/N=C/c1ccc(N2CCOCC2)s1`, the Potency is reported as inconclusive: 28.2 µM [inhibitor, single point].
In the case of `Cc1ccc(N2C(=N)/C(=C3/Nc4ccccc4S3)C(c3ccccc3)C2=O)cc1` (stereo not given), the Potency is reported as “inactive”.
With `COC(=O)c1cc(NC(=O)Cc2cc(OC)c(OC)c(OC)c2)cc(C(=O)OC)c1` the Potency was “inactive”.
`Cc1ccc(/C=C2\SC(=S)N(c3c(C)n(C)n(-c4ccccc4)c3=O)C2=O)cc1` was tested, and the Potency was inconclusive: 3.98 µM [inhibitor, partial curve, poor fit].
For `O=C(NC1(C(F)(F)F)NC(=O)N(Cc2ccccc2)C1=O)c1cccnc1` (stereo not given), the Potency was “inactive”.
With `CC1CC(C)CN(c2ccc(C(=O)NCc3ccc4c(c3)OCO4)cc2[N+](=O)[O-])C1` (stereo not given) the Potency was inconclusive: 14.1 µM [inhibitor, partial curve].
In the case of `COc1cccc(N=Nc2c(=O)[nH]n3c(=O)c4c([nH]c23)CCC4)c1`, the Potency is reported as active: 7.08 µM.
`CC1C2(C)OCC(C#N)(C(=N)O2)C1(C#N)C#N` (stereo not given) was tested, and the Potency was inconclusive: 31.6 µM [inhibitor, partial curve].
`O=C(CSc1nc(O)cc(=O)[nH]1)Nc1ccc2c(c1)CCC2` was tested, and the Potency was inconclusive: 17.8 µM [inhibitor, partial curve].
With `O=C(Nc1ccccc1)N1CCCN(c2ccc(C(F)(F)F)cc2[N+](=O)[O-])CC1` the Potency was inconclusive: 39.8 µM [inhibitor, single point].
With `CC(=O)c1ccc(NC(=O)COC(=O)c2ccccc2N=Nc2ccc(N(C)C)cc2)cc1` the Potency was “inactive”.
In the case of `Cc1c(NN=C(C#N)C#N)c(=O)n(-c2ccccc2)n1C`, the Potency is reported as inconclusive: 25.1 µM [inhibitor, partial curve].
For `N/C(CC(=O)NC1CCCCC1)=N\OCC(=O)Nc1ccc(Cl)c(Cl)c1`, the Potency was “inactive”.
`COc1ccccc1NS(=O)(=O)c1ccc(NN=C2CCCC2)c([N+](=O)[O-])c1` was tested, and the Potency was inconclusive: 14.1 µM [inhibitor, partial curve].
`C[C@@H]1CN=C2N(CCNC(=O)CCC3CCCCC3)[C@H](Cc3ccc(O)cc3)CN21` was tested, and the Potency was “inactive”.
With `N=c1c2c(ncn1CCCO)Oc1c(ccc3ccccc13)C2c1ccccc1` (stereo not given) the Potency was inconclusive: 39.8 µM [inhibitor, single point].
